Experimental data from a collection of fitness landscapes (doi:10.1126/science.1257360).
This is one part of the list.

B1: PhoQ; a variant is named by its letters at X, in order, P23837 (parent)
chain: MKKLLRLFFPLSLRVRFLLATAAVVLVLSLAYGMVALIGYSVSFDKTTFRLLRGESNLFYTLAKWENNKLHVELPENIDKQSPTMTLIYDENGQLLWAQRDVPWLMKMIQPDWLKSNGFHEIEADVNDTSLLLSGDHSIQQQLQEVREDDDDAEMTHSVAVNVYPATSRMPKLTIVVVDTIPVELKSSYMVWSWFIYVLSANLLLVIPLLWVAAWWSLRPIEALAKEVRELEEHNRELLNPATTRELTSLVRNLNRLLKSERERYDKYRTTLTDLTHSLKTPLXXLQXXLRSLRSEKMSVSDAEPVMLEQISRISQQIGYYLHRASMRGGTLLSRELHPVAPLLDNLTSALNKVYQRKGVNISLDISPEISFVGEQNDFVEVMGNVLDNACKYCLEFVEISARQTDEHLYIVVEDDGPGIPLSKREVIFDRGQRVDTLRPGQGVGLAVAREITEQYEGKIVAGESMLGGARMEVIFGRQHSAPKDE

Variants of: B1
Test: enrichment ratio after two sorts for PhoP signalling (ratio (wild type AVST 3.29)); higher = more functional
Conditions: with PhoP (E. coli)

Row | Variant | enrichment ratio
1 | NWIE | ≤ 0.25
2 | IQNF | ≤ 0.25
3 | SCVQ | 3.12
4 | AKLD | ≤ 0.25
5 | WEGA | ≤ 0.25
6 | GIYI | 0.548
7 | RENG | ≤ 0.25
8 | RSND | ≤ 0.25
9 | QTIF | ≤ 0.25
10 | SHKE | ≤ 0.25
11 | AWHY | ≤ 0.25
12 | EMVL | ≤ 0.25
13 | ICGL | ≤ 0.25
14 | PYLG | ≤ 0.25
15 | LFMG | ≤ 0.25
16 | TEDS | 3.29
17 | VDTY | ≤ 0.25
18 | VHRW | ≤ 0.25
19 | LSHV | 0.727
20 | SPMN | ≤ 0.25
21 | PHNS | ≤ 0.25
22 | ADQC | ≤ 0.25
23 | SASD | ≤ 0.25
24 | VDWH | ≤ 0.25

Row | Variant | enrichment ratio
25 | RYGI | ≤ 0.25
26 | YKQQ | ≤ 0.25
27 | WSLM | 9.91
28 | TNHG | ≤ 0.25
29 | KLWF | ≤ 0.25
30 | MLNI | ≤ 0.25
31 | ISNQ | ≤ 0.25
32 | YCHK | ≤ 0.25
33 | QFGW | ≤ 0.25
34 | NWFK | ≤ 0.25
35 | YYVC | ≤ 0.25
36 | KRLG | ≤ 0.25
37 | TFAK | ≤ 0.25
38 | SVMF | 7.14
39 | HFPF | ≤ 0.25
40 | TGTW | ≤ 0.25
41 | DCNM | ≤ 0.25
42 | LTPE | ≤ 0.25
43 | AWPC | ≤ 0.25
44 | IPLW | ≤ 0.25
45 | IMGV | ≤ 0.25
46 | SNRI | ≤ 0.25
47 | NPCW | ≤ 0.25
48 | WYMY | ≤ 0.25

Row | Variant | enrichment ratio
49 | HRCG | ≤ 0.25
50 | WILH | ≤ 0.25
51 | VTGF | ≤ 0.25
52 | QRAA | ≤ 0.25
53 | STMI | 14.9
54 | DKNG | ≤ 0.25
55 | MALQ | 13.1
56 | GLSG | 3.46
57 | PNKE | ≤ 0.25
58 | NVCG | ≤ 0.25
59 | RCLD | ≤ 0.25
60 | THWI | ≤ 0.25
61 | YRDH | ≤ 0.25
62 | IQDV | ≤ 0.25
63 | NRKE | ≤ 0.25
64 | ITIA | ≤ 0.25
65 | QFVD | ≤ 0.25
66 | KFPN | ≤ 0.25
67 | TSSE | 8.88
68 | PWRL | ≤ 0.25
69 | GHAA | ≤ 0.25
70 | FKCV | ≤ 0.25
71 | DDMC | ≤ 0.25
72 | HLCN | ≤ 0.25

Row | Variant | enrichment ratio
73 | HTFK | ≤ 0.25
74 | FDSL | ≤ 0.25
75 | RCYD | ≤ 0.25
76 | TIDN | ≤ 0.25
77 | FKMV | ≤ 0.25
78 | PEVT | ≤ 0.25
79 | MIPV | ≤ 0.25
80 | DDFT | ≤ 0.25
81 | FCGW | ≤ 0.25
82 | QHQG | ≤ 0.25
83 | SGCE | 6.72
84 | GCNH | ≤ 0.25
85 | EREA | ≤ 0.25
86 | QEWA | 6.62
87 | GRIW | ≤ 0.25
88 | SDSC | 2.35
89 | GDNY | ≤ 0.25
90 | NSTW | ≤ 0.25
91 | TKKS | ≤ 0.25
92 | VYRI | ≤ 0.25
93 | HMHM | ≤ 0.25
94 | HEPD | ≤ 0.25
95 | EDRC | ≤ 0.25
96 | PLRD | ≤ 0.25

Row | Variant | enrichment ratio
97 | SSFA | 0.262
98 | YAWD | ≤ 0.25
99 | AVMG | 2.13
100 | NCIQ | ≤ 0.25
101 | IFWS | ≤ 0.25
102 | KDWD | ≤ 0.25
103 | DSTC | ≤ 0.25
104 | RAQE | ≤ 0.25
105 | SNTM | 4.98
106 | NTEC | ≤ 0.25
107 | IQGR | ≤ 0.25
108 | WNPV | ≤ 0.25
109 | LFAW | ≤ 0.25
110 | TRCC | 6.66
111 | VSWS | 1
112 | PKSI | ≤ 0.25
113 | WETG | ≤ 0.25
114 | SLDY | ≤ 0.25
115 | LDAV | ≤ 0.25
116 | TSIM | ≤ 0.25
117 | HWGH | ≤ 0.25
118 | SIKW | ≤ 0.25
119 | RTMT | ≤ 0.25
120 | TDRW | ≤ 0.25

Row | Variant | enrichment ratio
121 | GMKR | ≤ 0.25
122 | QMDL | ≤ 0.25
123 | LLGV | ≤ 0.25
124 | LAHR | ≤ 0.25
125 | LLKD | ≤ 0.25
126 | HLCI | ≤ 0.25
127 | ADNI | ≤ 0.25
128 | ASFR | ≤ 0.25
129 | PAMF | ≤ 0.25
130 | VEGF | ≤ 0.25
131 | YCCM | 0.38
132 | YPAD | ≤ 0.25
133 | NLPH | ≤ 0.25
134 | ILCD | ≤ 0.25
135 | ENTQ | ≤ 0.25
136 | IWNV | ≤ 0.25
137 | GHNN | ≤ 0.25
138 | LYCD | ≤ 0.25
139 | YYLG | ≤ 0.25
140 | MTME | ≤ 0.25
141 | NNKS | ≤ 0.25
142 | EKCM | ≤ 0.25
143 | LYTN | ≤ 0.25
144 | RLKS | ≤ 0.25

Row | Variant | enrichment ratio
145 | VKNV | ≤ 0.25
146 | SLYQ | ≤ 0.25
147 | PIEY | ≤ 0.25
148 | DGPC | ≤ 0.25
149 | FMPM | ≤ 0.25
150 | HPGM | ≤ 0.25
151 | VKVF | ≤ 0.25
152 | FYFL | ≤ 0.25
153 | TQFL | 1.64
154 | YNRD | ≤ 0.25
155 | QCFS | ≤ 0.25
156 | HRHM | ≤ 0.25
157 | LTFN | ≤ 0.25
158 | KVCT | ≤ 0.25
159 | IGYC | ≤ 0.25
160 | RTDL | ≤ 0.25
161 | TSMP | ≤ 0.25
162 | SPCW | ≤ 0.25
163 | GAGS | ≤ 0.25
164 | ASSR | ≤ 0.25
165 | YMMY | ≤ 0.25
166 | LKAV | ≤ 0.25
167 | VGDA | ≤ 0.25
168 | VATI | ≤ 0.25

Row | Variant | enrichment ratio
169 | EDMG | ≤ 0.25
170 | SHDR | ≤ 0.25
171 | WRTL | ≤ 0.25
172 | TNTT | 3.59
173 | VCPC | ≤ 0.25
174 | EFWT | ≤ 0.25
175 | FEAQ | ≤ 0.25
176 | YMKF | ≤ 0.25
177 | IKYW | ≤ 0.25
178 | IPFE | ≤ 0.25
179 | DDMQ | ≤ 0.25
180 | GWHI | ≤ 0.25
181 | LEGM | ≤ 0.25
182 | VEQA | ≤ 0.25
183 | KTSK | ≤ 0.25
184 | MHHY | ≤ 0.25
185 | NDIE | ≤ 0.25
186 | VRSW | ≤ 0.25
187 | NQML | ≤ 0.25
188 | LNHW | ≤ 0.25
189 | GCSV | ≤ 0.25
190 | AGRI | 0.605
191 | SKMP | ≤ 0.25
192 | MGHV | 2.03

Row | Variant | enrichment ratio
193 | TKPA | ≤ 0.25
194 | GIMR | ≤ 0.25
195 | QPSL | ≤ 0.25
196 | LLAK | ≤ 0.25
197 | HKMF | ≤ 0.25
198 | DPAP | ≤ 0.25
199 | RFAT | ≤ 0.25
200 | EGFF | ≤ 0.25
201 | HLAC | ≤ 0.25
202 | IVSR | ≤ 0.25
203 | DHAR | ≤ 0.25
204 | HELI | 1.04
205 | PGWW | ≤ 0.25
206 | RKIK | ≤ 0.25
207 | RIED | ≤ 0.25
208 | MMES | ≤ 0.25
209 | WNWC | ≤ 0.25
210 | NKQE | ≤ 0.25
211 | WFHY | ≤ 0.25
212 | KSPS | ≤ 0.25
213 | NWEK | ≤ 0.25
214 | APHL | ≤ 0.25
215 | HRNC | ≤ 0.25
216 | HQFN | ≤ 0.25

Row | Variant | enrichment ratio
217 | MPMQ | ≤ 0.25
218 | RIFS | ≤ 0.25
219 | LWGY | ≤ 0.25
220 | NDPN | ≤ 0.25
221 | WLSA | ≤ 0.25
222 | MMYS | ≤ 0.25
223 | DSIN | ≤ 0.25
224 | IPAD | ≤ 0.25
225 | PAAR | ≤ 0.25
226 | GHAW | ≤ 0.25
227 | MDSL | ≤ 0.25
228 | RTPF | ≤ 0.25
229 | MWSS | ≤ 0.25
230 | WIAS | ≤ 0.25
231 | WTLG | ≤ 0.25
232 | DFMH | ≤ 0.25
233 | PPTG | ≤ 0.25
234 | IRVR | ≤ 0.25
235 | MLWW | ≤ 0.25
236 | QYTY | ≤ 0.25
237 | SVSD | ≤ 0.25
238 | VENW | ≤ 0.25
239 | EMIY | ≤ 0.25
240 | THGH | 13.1

Row | Variant | enrichment ratio
241 | SRYF | ≤ 0.25
242 | SDAW | 3.91
243 | QLLN | 0.731
244 | ASQS | ≤ 0.25
245 | YGMT | ≤ 0.25
246 | NQAT | ≤ 0.25
247 | GYVL | ≤ 0.25
248 | VRKA | ≤ 0.25
249 | WMFG | ≤ 0.25
250 | AGNF | ≤ 0.25
251 | WRQR | ≤ 0.25
252 | NNLV | 1.76
253 | DWPT | ≤ 0.25
254 | TMET | ≤ 0.25
255 | NSDE | ≤ 0.25
256 | GIKK | ≤ 0.25
257 | GVRN | ≤ 0.25
258 | MKEV | ≤ 0.25
259 | PSWE | ≤ 0.25
260 | GYLM | ≤ 0.25
261 | QCYW | ≤ 0.25
262 | NYGC | ≤ 0.25
263 | WGPR | ≤ 0.25
264 | QACC | ≤ 0.25

Row | Variant | enrichment ratio
265 | TEDA | ≤ 0.25
266 | VTPK | ≤ 0.25
267 | SNAL | 12.1
268 | HWLP | ≤ 0.25
269 | TWHV | ≤ 0.25
270 | GPTC | ≤ 0.25
271 | GNEM | ≤ 0.25
272 | SQTT | 11.4
273 | YDEP | ≤ 0.25
274 | LEET | ≤ 0.25
275 | ALYN | ≤ 0.25
276 | IGCT | ≤ 0.25
277 | QSIT | ≤ 0.25
278 | HALL | 12.4
279 | LITN | ≤ 0.25
280 | QAFH | 9.93
281 | KRKF | ≤ 0.25
282 | KERF | ≤ 0.25
283 | GPKD | ≤ 0.25
284 | SERS | ≤ 0.25
285 | LEMV | 12.9
286 | LDVK | ≤ 0.25
287 | IIPR | ≤ 0.25
288 | YTFV | ≤ 0.25

Row | Variant | enrichment ratio
289 | THKF | ≤ 0.25
290 | FYPN | ≤ 0.25
291 | DSKM | ≤ 0.25
292 | NHRH | ≤ 0.25
293 | WDWV | ≤ 0.25
294 | TGMG | 17.2
295 | IPIH | ≤ 0.25
296 | PKQI | ≤ 0.25
297 | QLMA | ≤ 0.25
298 | GTCS | 3.97
299 | VDSP | ≤ 0.25
300 | QLHV | ≤ 0.25
301 | EGEW | ≤ 0.25
302 | GGPS | ≤ 0.25
303 | IANI | ≤ 0.25
304 | MHGR | ≤ 0.25
305 | TGCM | 16.3
306 | WRGQ | ≤ 0.25
